Measurements: the supplement of paper PMC8512760
The list shows a part of the results. Most values come without repeats; read them as rough.

Key:
Experiment in all cases: cell viability relative to vehicle (% of vehicle); basal-like triple-negative breast cancer lines; higher = less cytotoxic
Details in all cases: 10 µM; 72 h
HCC-1143 = system: HCC-1143
HCC-1187 = system: HCC-1187
MDA-468 = system: MDA-468
SUM-149 = system: SUM-149
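Note: stably firefly luciferase-GFP labeled cells in 96-well plates, viability read as luciferase photon flux after d-luciferin addition, treated wells normalized to vehicle wells, single-dose high-throughput screen.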

Structure (SMILES) | cell viability (HCC-1143) | cell viability (HCC-1187) | cell viability (MDA-468) | cell viability (SUM-149)
CCCCNC(=O)NS(=O)(=O)c1ccc(C)cc1 [Tolbutamide] | 80.1 | 82.3 | 103 | 106
CCn1cc(C(=O)O)c(=O)c2cc(F)c(N3CCNC(C)C3)c(F)c21.Cl (stereo not given) [Lomefloxacin HCl] | 68.3 | 73.2 | 97.2 | 81.1
Cl.O=C(c1ccc(OCCN2CCCCC2)cc1)c1c(-c2ccc(O)cc2)sc2cc(O)ccc12 [Raloxifene HCl] | 107 | 156 | 139 | 147
Cl.NC(N)=NC(N)=NCCc1ccccc1 [Phenformin HCl] | 84.7 | 94.8 | 103 | 116
CC(=O)OCC(=O)C1(O)C(C)CC2C3CCC4=CC(=O)C=CC4(C)C3(F)C(O)CC21C (stereo not given) [Dexamethasone acetate] | 76.7 | 79.2 | 96.8 | 187
CCCC(=O)[O-].[Na+] [Sodium butyrate] | 75.9 | 101 | 107 | 80.2
COC(=O)Nc1nc2ccc(C(=O)c3ccc(F)cc3)cc2[nH]1 [Flubendazole] | 63.3 | 33 | 131 | 122
O=C1Cc2cc(CCN3CCN(c4nsc5ccccc45)CC3)c(Cl)cc2N1 [Ziprasidone] | 105 | 99.6 | 103 | 110
NC(=O)N1c2ccccc2CC(=O)c2ccccc21 [Oxcarbazepine] | 79.6 | 84.9 | 128 | 114
CCOC(=O)C1=C(C)NC(C)=C(C(=O)OC)C1c1cccc(Cl)c1Cl (stereo not given) [Felodipine] | 85.6 | 82.3 | 99.8 | 113
